{"source": "the supplement of paper PMC11417369", "note": "The list shows a part of the results."}
{"tested_on": "PfSIP2 AP2 domain 1 (GST-tagged)", "test": "gcPBM binding intensity (ln(normalized median fluorescence intensity)); higher = stronger DNA binding", "outline": "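In this array assay, P. falciparum DNA-binding domains with a GST tag, expressed in E. coli, were applied for 1 h to primer-extended double-stranded 36-bp intergenic genomic probes and negative controls on an Agilent 4 × 180k array. Bound protein was visualised with Alexa488 anti-GST antibody at 488 nm. Binding intensity is the highest Masliner-normalised natural-log median intensity across replicate spots of either probe orientation.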"}
{"sequence": "GAATTCAACAAAAAAAGTACTCTACATAAAATAATG [XGTACX_site175]", "gcPBM binding intensity (ln)": 7.2}
{"sequence": "ATATTGATGTATTGTTTTTTTTTTTTCTTTTTTTTT [CACACA_negctrl_site1238]", "gcPBM binding intensity (ln)": 6.72}
{"sequence": "GAACGAAACTTTCTTACACACATTGAAATTTTTTTC [CACACA_site1779]", "gcPBM binding intensity (ln)": 7.03}
{"sequence": "TTATAAAAGGACTTCTGTACGAATTTTTTTTAATAA [XGTACX_site1411]", "gcPBM binding intensity (ln)": 6.77}
{"sequence": "TACTCACAATGGGGTCTACAAAAAAAAAAAAATAAA [XGTACX_negctrl_site229]", "gcPBM binding intensity (ln)": 7.07}
{"sequence": "TATGCAAGGAACCACACACACACACCGAAATGTATA [CACACA_site4573]", "gcPBM binding intensity (ln)": 6.87}
{"sequence": "AATAAATAAATATATATATATATATAATATCATAAA [CACACA_negctrl_site337]", "gcPBM binding intensity (ln)": 7.29}
{"sequence": "TTTTTTATTAGTATCTGTACACATTGGTATTTGTAT [XGTACX_site6682]", "gcPBM binding intensity (ln)": 7.34}
{"sequence": "AGTTTATTTATATACACACACATATAAATATTATAG [CACACA_site6522]", "gcPBM binding intensity (ln)": 7.05}
{"sequence": "ATATATATTTATGTATCACACACAAAAAAAAAAAAT [CACACA_site7973]", "gcPBM binding intensity (ln)": 7.07}
{"sequence": "TATATATATATATATTGTACTTATGTTTATATTCAT [XGTACX_site6258]", "gcPBM binding intensity (ln)": 9.63}
{"sequence": "TTCTTTAAAATATTATGTACACATTGCGAACAGTTT [XGTACX_site5418]", "gcPBM binding intensity (ln)": 7.42}
{"sequence": "ATAAACTGAGTGGTTACACACAAAACCAATAACTTT [CACACA_site7601]", "gcPBM binding intensity (ln)": 6.62}
{"sequence": "ATATAGACACACACATGTACATATGCCAACGTGATA [XGTACX_site3828]", "gcPBM binding intensity (ln)": 7.12}
{"sequence": "ACTATATAATATAATATATTATAATATATTATATTA [GTGCAC_negctrl_site140]", "gcPBM binding intensity (ln)": 6.96}
{"sequence": "TTCTTAAAATATGAAAGTACATAGGCATTATATATT [XGTACX_site8400]", "gcPBM binding intensity (ln)": 7.01}
{"sequence": "TCCTTTCTTTTTTAAACATGCATATGTAATATAAAT [TGCATGCA_site979]", "gcPBM binding intensity (ln)": 7.18}
{"sequence": "CCTTCATCATATTTAACACACAGAGAAAAAGCGGAT [CACACA_site274]", "gcPBM binding intensity (ln)": 7.22}
{"sequence": "AAAAAAAAAAAAAAAAAAACCACAAACAAATATGAA [TGCATGCA_negctrl_site34]", "gcPBM binding intensity (ln)": 7.97}
{"sequence": "CTCGTATATATAATACGTACATATTATATATATATA [XGTACX_site1704]", "gcPBM binding intensity (ln)": 8.84}
{"sequence": "TTTACATACAAATTAACACACATATAGAAAAGAGAA [CACACA_site1889]", "gcPBM binding intensity (ln)": 7.32}
{"sequence": "AAAAAAAATAAACACACACACATACCCATAAATATA [CACACA_site5980]", "gcPBM binding intensity (ln)": 7.03}
{"sequence": "ATAATATAATAATACACACTCATTATATATATAAAG [CACACA_site3956]", "gcPBM binding intensity (ln)": 7.06}
{"sequence": "TTTTAAAATATATTTGTATATATATATATATATATA [XGTACX_negctrl_site536]", "gcPBM binding intensity (ln)": 9.99}
{"sequence": "TTTGAAATATTTATTTGTACATATACACACTTAAAT [XGTACX_site8321]", "gcPBM binding intensity (ln)": 7.07}
{"sequence": "ATATTATTTTGTCAGGGTACATTCCATAAGTTTTTT [XGTACX_site6855]", "gcPBM binding intensity (ln)": 6.99}
{"sequence": "TATTTATGTAGATACACACCCATGTTATATGGAGGT [CACACA_site3461]", "gcPBM binding intensity (ln)": 6.8}
{"sequence": "TTTCTTTTTTTTTTTATTTACCTGAATTATGTATTA [TGCATGCA_negctrl_site345]", "gcPBM binding intensity (ln)": 6.68}
{"sequence": "GCTTGTTCAAAAATGAGTACATACAAATAGTTGTAT [XGTACX_site1770]", "gcPBM binding intensity (ln)": 7.14}
{"sequence": "AATAGATTTTTATGCGTGCACACATTTAACAAAAAA", "gcPBM binding intensity (ln)": 9.17}
{"sequence": "GTGCTAGTATTTAATACACACAATTGAAGTTCCTGA [CACACA_site1452]", "gcPBM binding intensity (ln)": 7.09}
{"sequence": "AAAAATATAAAGAAATGTACTTATAAAAATCCCTAC [XGTACX_site3824]", "gcPBM binding intensity (ln)": 7.15}
{"sequence": "TACACCAGTTGTGGGAGTACACAAAAAAAGGGAAAA [XGTACX_site6047]", "gcPBM binding intensity (ln)": 7.02}
{"sequence": "TTCTGTTCAAAATATGAACACACACCGATATATATA [CACACA_site8637]", "gcPBM binding intensity (ln)": 7.34}
{"sequence": "CTTTATCTTTTTCATTGTACTTTATTTTAAAATTAA [XGTACX_site4858]", "gcPBM binding intensity (ln)": 7.51}
{"sequence": "TGCAGTCTGGAGAAAAGTACACAGTATCTGGTAGCT [XGTACX_site2013]", "gcPBM binding intensity (ln)": 7.04}
{"sequence": "AATATCATAAAATAAAGTACAAATATATATTGAAAA [XGTACX_site8813]", "gcPBM binding intensity (ln)": 6.76}
{"sequence": "TTCTGGTGTAAATGCACACAGAAGAAGAAAAAAAAA [CACACA_site3685]", "gcPBM binding intensity (ln)": 7.92}
{"sequence": "TAATTTAATTTTCCAAGAAAAAAAAAAGAAAAAAGA [CACACA_negctrl_site1703]", "gcPBM binding intensity (ln)": 6.76}
{"sequence": "TAACATCCTAATGTCACACATGTTATAGGTTTAAAT [CACACA_site5649]", "gcPBM binding intensity (ln)": 6.75}
{"sequence": "ATATAATATTACAAATGTACTTTAAAAAATTAGGAG [XGTACX_site3897]", "gcPBM binding intensity (ln)": 7.25}
{"sequence": "TTGTTTCAAGAAAAAATCGAAAAACATAGAAAAAAA [XGTACX_negctrl_site615]", "gcPBM binding intensity (ln)": 6.88}
{"sequence": "ACATATAAAATATATACACACATATAAATACATTAA [CACACA_site3867]", "gcPBM binding intensity (ln)": 7.06}
{"sequence": "TATATATCAAAAATATGTACACAGAAATATATATTA [XGTACX_site6997]", "gcPBM binding intensity (ln)": 7.21}
{"sequence": "TTGCAATAATGTTGCACACTAAATAGTCATATATAA [CACACA_site263]", "gcPBM binding intensity (ln)": 7.31}
{"sequence": "TTTTAGTGAAATGAGTGTACATTATATATTTTTTTT [XGTACX_site4892]", "gcPBM binding intensity (ln)": 6.86}
{"sequence": "ATTCTATATATATAAACACACAAATATTTTTATATA [CACACA_site1677]", "gcPBM binding intensity (ln)": 7.24}
{"sequence": "AAGACTAATCTAGGTAGTACTTATATATCTTTATTT [XGTACX_site4572]", "gcPBM binding intensity (ln)": 6.81}
{"sequence": "ATATAAGGAAGGGATGCACACAAAAGGGTACATAAG [CACACA_site9328]", "gcPBM binding intensity (ln)": 7.6}
{"sequence": "ATATTTTTGTTCAGGAGTACAGTTCAAGATGAAAAT [XGTACX_site4178]", "gcPBM binding intensity (ln)": 7.29}
{"sequence": "ATAACATAATAGCAACAATTTATTTCCTCTATAACA [CACACA_negctrl_site243]", "gcPBM binding intensity (ln)": 6.94}
{"sequence": "TTTTTTATATATGTGTGTGTGTGTGTGTCAAGTTTA [GTGCAC_negctrl_site460]", "gcPBM binding intensity (ln)": 7.4}
{"sequence": "TTTGGGATATTTACAGTGCAAAGATATTTTTATAAT", "gcPBM binding intensity (ln)": 8.08}
{"sequence": "AATGGGGAAGGTTCTACACACAACGCAAATGCCTTA [CACACA_site2758]", "gcPBM binding intensity (ln)": 6.74}
{"sequence": "TATAAATAATGTTAAACACACATACCGATATATAAT [CACACA_site5499]", "gcPBM binding intensity (ln)": 6.93}
{"sequence": "AAATTATTATGTATTTGTACACATAAGAATATAAAA [XGTACX_site6841]", "gcPBM binding intensity (ln)": 6.88}
